The structures appear in SMILES notation. Out of some 310,000 compounds screened, about 14,000 (4.5%) showed an effect of 50% or more. Effects have a minus sign here. The list shows a part of the results.
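Also: peak tail current of the secondary pulse compared with the same well before compound.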

The target in the test is human ether-à-go-go-related gene (hERG) potassium channel (human, UniProt Q12809). The test can be described thus: primary screen, population patch clamp on CHO cells stably expressing hERG.
Chain of human ether-à-go-go-related gene (hERG) potassium channel (Q12809 whole entry, looked up): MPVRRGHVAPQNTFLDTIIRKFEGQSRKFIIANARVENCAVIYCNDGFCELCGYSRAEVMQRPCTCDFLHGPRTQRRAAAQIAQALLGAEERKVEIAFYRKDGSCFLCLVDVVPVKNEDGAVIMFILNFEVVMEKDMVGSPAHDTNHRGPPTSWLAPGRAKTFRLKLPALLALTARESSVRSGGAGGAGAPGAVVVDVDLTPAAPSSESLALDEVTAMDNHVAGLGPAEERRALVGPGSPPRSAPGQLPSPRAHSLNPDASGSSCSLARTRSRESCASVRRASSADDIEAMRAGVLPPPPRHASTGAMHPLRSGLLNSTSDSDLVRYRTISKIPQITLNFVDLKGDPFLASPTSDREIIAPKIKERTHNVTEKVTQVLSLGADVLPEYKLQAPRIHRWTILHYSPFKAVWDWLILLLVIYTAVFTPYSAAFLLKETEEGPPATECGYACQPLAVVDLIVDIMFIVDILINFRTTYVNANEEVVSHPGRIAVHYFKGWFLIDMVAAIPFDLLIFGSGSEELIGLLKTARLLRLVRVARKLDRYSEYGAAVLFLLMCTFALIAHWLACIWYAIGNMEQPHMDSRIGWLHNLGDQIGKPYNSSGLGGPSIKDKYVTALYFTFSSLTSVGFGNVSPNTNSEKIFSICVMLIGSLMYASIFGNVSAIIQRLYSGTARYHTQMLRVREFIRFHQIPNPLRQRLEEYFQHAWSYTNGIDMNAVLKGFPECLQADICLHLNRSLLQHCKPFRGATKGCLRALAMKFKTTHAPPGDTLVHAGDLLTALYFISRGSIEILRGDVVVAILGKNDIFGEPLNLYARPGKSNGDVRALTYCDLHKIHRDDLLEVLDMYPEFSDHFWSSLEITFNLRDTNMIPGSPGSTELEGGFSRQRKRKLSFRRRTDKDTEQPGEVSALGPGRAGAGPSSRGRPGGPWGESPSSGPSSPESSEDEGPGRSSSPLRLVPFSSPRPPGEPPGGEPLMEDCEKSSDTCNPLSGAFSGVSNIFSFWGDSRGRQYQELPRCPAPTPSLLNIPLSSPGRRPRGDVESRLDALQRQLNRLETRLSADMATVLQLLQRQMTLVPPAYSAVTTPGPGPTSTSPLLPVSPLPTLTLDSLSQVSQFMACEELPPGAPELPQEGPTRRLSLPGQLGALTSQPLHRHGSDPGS
As for `CCC(C)C(=O)N1CCCC(c2nc(-c3cccs3)no2)C1` (stereo not drawn), the “hERG current change (%, negative = inhibition) at 10uM” value worked out at 5.17%. Regarding `CN(C(=O)COC(=O)c1cc2c(s1)CCCCC2)C1CCS(=O)(=O)C1` (stereo not drawn), the “hERG current change (%, negative = inhibition) at 10uM” value is recorded as -7.88%.

Turning to `O=C(Nc1nccs1)c1cc2sccc2n1Cc1ccc(F)cc1`, the “hERG current change (%, negative = inhibition) at 10uM” value was -2.56%. Consider `O=C(NCc1ccccn1)c1cn(CCc2ccccc2)nn1`, for which the “hERG current change (%, negative = inhibition) at 10uM” value was found to be 16%. To `COc1ccccc1CN1C(=O)c2ccncc2C1=O` belongs -18.8%; to `CCOC(=O)C1=C(C)N=c2s/c(=C\c3ccc(C(=O)O)cc3)c(=O)n2C1c1ccc(OC)cc1OC` (stereo not drawn), 0.835%. Turning to `CCCCNC(=O)c1ccccc1NC(=O)CN(c1ccccc1)S(=O)(=O)N(C)C`, the “hERG current change (%, negative = inhibition) at 10uM” value was 1.49%. Turning to `COc1ccc(C/C(N)=N/OC(=O)c2cccc([N+](=O)[O-])c2)cc1`, the “hERG current change (%, negative = inhibition) at 10uM” value was -44.2%. Consider `CC(C)COP(=O)(c1ccc(N(C)C)cc1)C(O)c1ccc(N(C)C)cc1` (stereo not drawn), for which the “hERG current change (%, negative = inhibition) at 10uM” value is on record as 15.9%. Under `CCOC(=O)Cn1c2c(c(=N)c3c1CCC3)CCCC2.Cl` stands 18.5%; under `CC(C)c1c(C(=O)N/N=C/c2cccc(OCc3ccccc3)c2)nnn1-c1nonc1N`, 26.6%; under `O=C(N/N=C/c1ccc(OCc2ccc(F)cc2)cc1)c1ccccc1`, 12.6%.

On to `COc1ccc(/C=N/Nc2cc(C)nc(NS(=O)(=O)c3ccc(C)cc3)n2)cc1`, for which the “hERG current change (%, negative = inhibition) at 10uM” value is on record as -17.5%.

Take `O=C(O)C1CCCCC1C(=O)Nc1cc(Cl)ccc1Cl` (stereo not drawn): the “hERG current change (%, negative = inhibition) at 10uM” value was 10.3%. In the case of `COc1cccc(NC(=O)Nc2ccccc2C(N)=O)c1`, the “hERG current change (%, negative = inhibition) at 10uM” value is recorded as 1.99%. Under `CCN(CC)S(=O)(=O)c1cccc(-c2nnc(SCCCC(=O)c3ccccc3)o2)c1` stands -23.8%.

As to `Cc1cccc(N2CCN(S(=O)(=O)c3c(C)[nH]c(C)c3C(=O)N3CCCCC3)CC2)c1C`, the “hERG current change (%, negative = inhibition) at 10uM” value worked out at 0.772%. Under `Cc1ccc(C)c(N2N=C(C(=O)OCc3nnc(-c4ccccc4)o3)CCC2=O)c1` stands -5.45%.

`O=C(COc1ccc(-n2cnnn2)cc1)NC(=O)NCc1ccccc1`: the “hERG current change (%, negative = inhibition) at 10uM” value is -34.1%. To `O=C(OCC(O)COC(=O)c1cccnc1)c1cccnc1` belongs 15.5%; to `Cc1ccc(C(=O)NNC(=O)COc2ccc(Cl)cc2C)o1`, -57.6%. To `COc1ccc(S(=O)(=O)N2CCOC2CNC(=O)C(=O)NCCc2c[nH]c3ccccc23)cc1` (stereo not drawn) belongs -17.9%; to `Cc1c(Cl)c([N+](=O)[O-])nn1CC(=O)NCc1ccco1`, 1.49%; to `Cc1nc2ccccc2c(=O)n1CCCO`, 7.75%. `Cc1cccc(-c2noc(CNC(=O)c3ccoc3C)n2)c1`: the “hERG current change (%, negative = inhibition) at 10uM” value is listed as 1.72%. As for `Cn1ncc(C#N)c1/N=C/N1CCCCCC1`, the “hERG current change (%, negative = inhibition) at 10uM” value is on record as -2.33%.

In the case of `COCCNC(=O)CN1C(=O)NC(c2ccccc2)(c2ccccc2)C1=O`, the “hERG current change (%, negative = inhibition) at 10uM” value is -2.7%. As to `Cc1ccnc(NS(=O)(=O)c2ccc(Cl)nc2)c1`, the “hERG current change (%, negative = inhibition) at 10uM” value came out at 6.59%. For `Cc1ccc(C(=O)NNC(=O)c2ccc(NC(=O)C(C)(C)C)cc2)cc1`, the “hERG current change (%, negative = inhibition) at 10uM” value is reported as 14.5%. In the case of `Cc1nn(CCC#N)c(C)c1Oc1ccccc1O`, the “hERG current change (%, negative = inhibition) at 10uM” value was 6.13%.

Turning to `O=C(CCC1N=C2c3ccccc3N=C(SCc3cccc(Cl)c3)N2C1=O)NCc1ccco1` (stereo not drawn), the “hERG current change (%, negative = inhibition) at 10uM” value was -42.2%. To `CC(Sc1nncs1)C(=O)NCC(=O)Nc1ccc(F)c(F)c1F` (stereo not drawn) belongs 11%; to `O=C1CC2(CCCC2)C(=O)N1CN1CCN(S(=O)(=O)c2ccc(Cl)c(Cl)c2)CC1`, 3.53%. Consider `COc1ccc(N(C)S(=O)(=O)c2ccc3c(c2)CC(C)N3C(=O)C2CC2)c(OC)c1` (stereo not drawn), for which the “hERG current change (%, negative = inhibition) at 10uM” value worked out at 3.79%. Under `O=[N+]([O-])c1ccc2nc(Cl)nc(-c3ccccc3)c2c1` stands -31.5%.

On to `Cc1ccc(OCc2nnc(SCC(=O)c3ccccc3)n2-c2ccccc2)cc1`, for which the “hERG current change (%, negative = inhibition) at 10uM” value is given as 1.75%. Regarding `O=C(Cn1nnc(-c2ccccc2NC(=O)C2CC2)n1)NC1CCCCC1`, the “hERG current change (%, negative = inhibition) at 10uM” value is -5.23%. To `CNS(=O)(=O)c1ccc(N2CCCC2=O)c([N+](=O)[O-])c1` belongs -4.8%; to `Cc1[nH]nc2c1C1(CCN(Cc3ccccc3)CC1)C(C#N)=C(N)O2`, -42%.

As for `C[C@H](NC(=O)c1nc[nH]c1C(=O)NCC(=O)OCc1ccccc1)C(=O)OCc1ccccc1`, the “hERG current change (%, negative = inhibition) at 10uM” value is 9.72%.

Consider `CCOc1ccc2nc(SCc3ccc(CC(=O)O)cc3)c(C#N)cc2c1`, for which the “hERG current change (%, negative = inhibition) at 10uM” value came to 23.2%. Take `Cc1ccn2c(CNCc3cnn(C)c3)c(C(=O)N3CCCCCC3)nc2c1`: the “hERG current change (%, negative = inhibition) at 10uM” value is -26.2%.

(Values after paper PMC4336329 (PLoS ONE, 2015).)
